Test results taken from PubChem BioAssay AID624417 (National Center for Advancing Translational Sciences (NCATS), 2012).
Where “and” joins values, the source holds several entries; their conditions need not be identical. Equal values may be shown once. Among all 410,000 compounds or so, about 6,400 (1.6%) were called active. The inconclusive results got no clear call from the source; some entries with a clear call stand among them for comparison. Calls come from the whole dose curve; as a rule, active = well fitted inhibition curve with a large enough effect; inconclusive = small, poorly fitted or top-dose-only effect; inactive = no such curve, though single readings can be large or run the other way. Potencies beside an inconclusive call are fits to weak or partial responses and may not hold up.

biological target: Glucagon-like peptide 1 receptor (Homo sapiens) (UniProt P43220); assay: qHTS of GLP-1 Receptor Inverse Agonists (Inhibition Mode); settings: HEK293 GLP-1R CRE-luciferase, luminescence, 24 h, GLP-1R form is constitutively active; series mostly up to 38.3 µM; note: nearly all actives have a fitted effect of over 55% in size
Sequence of UniProt P43220 (P43220 whole entry, looked up): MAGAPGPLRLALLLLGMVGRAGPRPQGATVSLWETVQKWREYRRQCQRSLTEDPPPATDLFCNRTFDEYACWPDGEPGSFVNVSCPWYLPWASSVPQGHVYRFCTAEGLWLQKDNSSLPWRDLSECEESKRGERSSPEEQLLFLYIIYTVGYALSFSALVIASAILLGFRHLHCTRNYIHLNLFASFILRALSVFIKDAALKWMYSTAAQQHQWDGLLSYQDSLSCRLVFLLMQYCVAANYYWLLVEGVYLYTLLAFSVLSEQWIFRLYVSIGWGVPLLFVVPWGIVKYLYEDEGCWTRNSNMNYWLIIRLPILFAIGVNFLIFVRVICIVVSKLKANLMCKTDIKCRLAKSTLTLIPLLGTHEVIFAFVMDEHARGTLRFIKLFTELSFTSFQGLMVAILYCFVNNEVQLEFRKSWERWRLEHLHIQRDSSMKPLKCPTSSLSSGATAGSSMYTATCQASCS
How it was run: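 Seeding at 200 cells/uL, 12 h culture, 24 hr compound treatment, then luciferase reagent and a luminescence read; cells are HEK293 stably expressing a constitutively active GLP-1R plus cAMP-responsive luciferase.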
Potency is the fitted concentration of half-maximal effect; tags give direction and shape of the fitted curve.

Compound | Potency
CC(C)(C)c1cc(C(C)(C)C)cc(S(=O)(=O)CCc2ccccn2)c1 | inconclusive: 22.4 µM [inhibitor, single point]
Cc1ccc(CN2C(=O)C(C)Nc3ncnc(N4CCN(c5ccccn5)CC4)c32)cc1 (stereo not given) | inconclusive: 20 µM [inhibitor, single point]
CCCN(CC(=O)Nc1ccccc1C)C(=O)c1ccc(-c2ccc([N+](=O)[O-])cc2)o1 | inactive
Cc1ccc(C)c(N(C)C(=O)c2ccc3c(=O)n4c(nc3c2)CCCCC4)c1 | inconclusive: 28.2 µM [inhibitor, single point]
CC1CCN(c2c([N+](=O)[O-])nn(-c3ccc4c(c3)OCCO4)[n+]2[O-])CC1 | inconclusive: 11.2 µM [inhibitor, partial curve, poor fit]
CC(C)(C)OC(=O)N1CCN(c2ccc(NC(=O)c3ccco3)cc2)CC1 | inconclusive: 11.2 µM [inhibitor, single point]
CCCCCCCCCCn1ccc(=N)cc1 | inconclusive: 1 µM [inhibitor, full curve, poor fit]
Cc1ccc(S(=O)(=O)N2CCN(CCOc3c(Cl)cccc3Cl)CC2)cc1C | inconclusive: 10 µM [inhibitor, partial curve]
C/C(=N\Nc1nc(C)cc(-c2ccccc2)n1)c1ccc(C)o1 | inconclusive: 11.2 µM [inhibitor, partial curve, poor fit]
CCn1nc(C)cc1C(=O)NC1CCCc2c1cnn2-c1ccc(C)c(C)c1 (stereo not given) | inconclusive: 2 µM [inhibitor, partial curve, poor fit]
COc1ccc(C(=O)N2CCC(c3nc(-c4ccc(S(=O)(=O)N5CCCC5)cc4)no3)CC2)cc1 | inactive
COC(=O)c1cc2occc2n1Cc1cccc(C)c1 | inconclusive: 28.2 µM [inhibitor, single point]
O=C(Nc1nc(-c2ccccc2)cs1)c1cccc(S(=O)(=O)N2CCN(Cc3ccccc3)CC2)c1 | inconclusive: 31.6 µM [inhibitor, single point]
CCCc1c(C(=O)N/N=C/c2c[nH]c3ccccc23)nnn1-c1nonc1N | inconclusive: 6.31 µM [inhibitor, partial curve, poor fit]
COc1cccc(C(=O)NCCSc2ccc(Br)cc2)c1 | inconclusive: 4.47 µM [inhibitor, partial curve]
Cc1ccc(S(=O)(=O)NCC(=O)NCC(=O)NC(C)c2ccccc2Br)cc1C (stereo not given) | inconclusive: 11.2 µM [inhibitor, partial curve, poor fit]
Cc1ccc(C2(O)CN(c3ccccc3C)C3=[N+]2CCS3)cc1 (stereo not given) | inconclusive: 7.08 µM [inhibitor, partial curve, poor fit]
COC(=O)c1c(C)[nH]c(C)c1-c1ccccc1Cl | inconclusive: 5.62 µM [inhibitor, full curve, poor fit]
Cc1ccccc1C(=O)Nc1ccc2c(c1)CCCN2C(=O)c1cccs1 | inconclusive: 2.24 µM [inhibitor, full curve] and inconclusive: 1.58 µM [inhibitor, full curve, poor fit]
O=Cc1ccc(N2Cc3ccccc3C2)cc1 | inconclusive: 0.501 µM [inhibitor, full curve, poor fit]

Compound | Potency
Cc1ccc(C(=O)Nc2onc3c2CCCC3)cc1 | inconclusive: 8.91 µM [inhibitor, partial curve, poor fit]
CC(=O)Nc1ccc(S(=O)(=O)N2CCN=C2SCc2cccc(C)c2)cc1 | inconclusive: 31.6 µM [inhibitor, single point]
COc1cccc(CNC(=O)CN2C(=O)NC(Cc3ccccc3)(c3ccccc3)C2=O)c1 (stereo not given) | inconclusive: 28.2 µM [inhibitor, single point]
O=C(OCC(=O)N1CCCC1)c1c[nH]c2ccccc12 | inactive
COc1ccccc1CNC(=O)c1cnc2sc(N3CCCCCC3)nn2c1=O | inactive
Cc1cccc(NC(=O)c2ccc(-c3nc(CSc4ccccc4)c(C)o3)cc2)c1C | inactive
Cc1nc2sc(C(N)=O)c(N)c2c(-c2ccc(Br)cc2)c1C(=O)Nc1ccc(Cl)cc1 | inconclusive: 12.6 µM [inhibitor, partial curve, poor fit]
C=CCN1CCN(c2ccncc2S(=O)(=O)N2CCN(C)CC2)CC1 | inactive
CN(C)CCCN=Cc1c(O)n(Cc2ccccc2)c(=O)c2ccccc12 | inconclusive: 11.2 µM [inhibitor, partial curve, poor fit]
CCCCn1c(NCc2ccc(N(C)C)cc2)nc2ccccc21 | inconclusive: 28.2 µM [inhibitor, single point] and inconclusive: 10 µM [inhibitor, partial curve, poor fit]
O=C(CCOc1ccccc1)N(Cc1cccnc1)c1nc2c(F)cccc2s1 | inconclusive: 28.2 µM [inhibitor, single point]
COc1ccccc1CN1C[C@@H]2C[C@@H](c3cccc(C)c3)N3CCC[C@@]23C1=O | inconclusive: 15.8 µM [inhibitor, single point]
CCOc1ccc(C(=O)Nc2nnn(CC)n2)cc1 | inconclusive: 28.2 µM [inhibitor, single point]
COc1ccc(CNc2nc3ccc(C)cc3s2)c(OC)c1OC | inconclusive: 28.2 µM [inhibitor, single point]
CN(C)CCCOc1ccc(C(C)(C)c2ccccc2)cc1 | inconclusive: 14.1 µM [inhibitor, partial curve, poor fit]
CC(=O)Nc1cccc(-c2ccnc3c2CC(C(=O)NCCC(F)(F)F)O3)c1 (stereo not given) | inconclusive: 7.08 µM [inhibitor, partial curve, poor fit]
CN1CCN(c2ccc(-c3cc(NC=O)c4ncc(-c5ccccc5)n4c3)cc2)CC1 | inconclusive: 7.08 µM [inhibitor, partial curve, poor fit]
O=C(Nc1ccc(Cl)c(C(F)(F)F)c1)C1CCN(S(=O)(=O)c2cccc3nonc23)CC1 | inconclusive: 12.6 µM [inhibitor, single point]
Nc1ccc(N=Nc2ccccc2O)c(N)c1 | inconclusive: 0.708 µM [inhibitor, full curve, poor fit]
CCOC(=O)NNC(=O)CCn1c2c(c3ccccc31)CCCC2 | inconclusive: 14.1 µM [inhibitor, partial curve, poor fit]

Compound | Potency
COC(=O)c1ccc2c(c1)C(C)(C)C(/C=C/c1ccccc1O)=[N+]2C | inconclusive: 3.16 µM [inhibitor, partial curve, poor fit]
CC(=O)C1=CCC(c2cccc(Cl)c2)N(S(=O)(=O)c2ccc(C)cc2)C1 (stereo not given) | inconclusive: 28.2 µM [inhibitor, single point]
O=C(Cc1ccccc1)NCC(=O)Nc1cccc(Cl)c1 | inconclusive: 10 µM [inhibitor, partial curve, poor fit]
COC(=O)c1ccc(COC(=O)C(NC(=O)Cc2ccccc2)C(C)C)cc1 (stereo not given) | inconclusive: 17.8 µM [inhibitor, partial curve, poor fit]
COCC1CCN(Cc2cn(Cc3ccccc3)nc2-c2cc3ccccc3o2)CC1 | inconclusive: 28.2 µM [inhibitor, single point]
Cc1ccccc1CSc1cn(CC(=O)N2CCCCCC2)c2ccccc12 | inconclusive: 28.2 µM [inhibitor, single point]
CC(C)(C)c1ccc(-c2nc(SCC(=O)Nc3ccccc3F)n3[nH]c(=O)cc3n2)cc1 | inconclusive: 10 µM [inhibitor, partial curve, poor fit]
Cc1ccc(S(=O)(=O)NN2C(=O)/C(=C/c3cccnc3)SC2=S)cc1 | inconclusive: 10 µM [inhibitor, single point]
CCCCn1c(O)c2n(c1=O)Cc1ccccc1N=C2c1ccc(C)cc1 | inactive
O=C(c1cccc(Cl)c1)C1CCCN(Cc2ccc(N3CCNC3=O)cc2)C1 (stereo not given) | inconclusive: 2.82 µM [inhibitor, partial curve, poor fit]
COc1ccc(C(CNC(=O)c2cc(S(=O)(=O)N3CCCC3)ccc2Cl)N2CCCC2)cc1 (stereo not given) | inactive
Cc1nc2cc(NC(=O)c3ccco3)ccc2n1C | inconclusive: 28.2 µM [inhibitor, single point]
CC(C)C1C(C#N)=C(N)Oc2n[nH]c(-c3ccc4ccccc4c3)c21 (stereo not given) | inconclusive: 10 µM [inhibitor, partial curve, poor fit]
CCOc1ccccc1CNC(=O)c1cccn1-c1nnc(N2CCCC2)s1 | inactive
COc1ccc(S(=O)(=O)N(CC(=O)Nc2cccnc2)c2ccc(Cl)cc2)cc1 | inconclusive: 28.2 µM [inhibitor, single point]
CSc1ccc(CSCC(=O)N2CCN(S(=O)(=O)c3ccc(C)cc3C)CC2)cc1 | inconclusive: 10 µM [inhibitor, single point]
COc1ccc(CNC(=O)Cn2c(=O)cc(-c3ccccc3)c3c(C)nn(C)c32)cc1 | inactive
CC1=C(C(=O)N(C(C)C)C(C)C)CC(CC(=O)NCc2cccs2)C(=O)N1Cc1ccccc1 (stereo not given) | inconclusive: 28.2 µM [inhibitor, single point]
CCCCC1CN2CCc3c([nH]c4ccccc34)C2(C)C1 (stereo not given) | inconclusive: 11.2 µM [inhibitor, partial curve, poor fit]
Cc1cccc(N2CCN(C(=S)NCc3ccco3)CC2)c1C | inconclusive: 28.2 µM [inhibitor, single point]
